Patent publication US11000038B2, “Pyridone compounds and agricultural and horticultural fungicides containing the same as active ingredients” (priority 2017, dated 2021)

How the values were obtained:
[1] = tested on: rice blast fungi (Magnaporthe grisea); type: in vivo; details: rice blast, spray treatment
[2] = tested on: cucumber anthracnose fungi (Colletotrichum orbiculare); experiment: Test Example H: cucumber anthracnose, spray treatment of cucumber plants; details: cucumber anthracnose, 250 ppm spray, 6 to 10 days after inoculation
[3] = tested on: tomato late blight fungi (Phytophthora infestans); type: in vivo; details: tomato late blight, spray treatment

Row | Compound | Test A control value [1] | Test H control value [2] | Test F control value [3]
1 | CCCc1ccccc1-n1cc(C)c(=O)c(C)c1-c1c(F)cc(F)cc1F [Compound 445] | H (H shows the control value of more than 50%) | H (H shows the control value of more than 50%) | L (L shows the control value of 50% or less)
2 | CCCc1ccccc1-n1cc(Cl)c(=O)c(Cl)c1-c1c(F)cc(F)cc1F [Compound 446] | H (H shows the control value of more than 50%) | H (H shows the control value of more than 50%) | L (L shows the control value of 50% or less)
3 | CCCc1ccccc1-n1cc(Cl)c(=O)c(Br)c1-c1c(F)cc(F)cc1F [Compound 447] | L (L shows the control value of 50% or less) | H (H shows the control value of more than 50%) | L (L shows the control value of 50% or less)
4 | Cc1ccc(F)cc1-n1cc(C)c(=O)c(C)c1-c1c(F)cccc1F [Compound 448] | H (H shows the control value of more than 50%) | H (H shows the control value of more than 50%) | L (L shows the control value of 50% or less)
5 | Cc1ccc(F)cc1-n1cc(Cl)c(=O)c(Br)c1-c1c(F)cccc1F [Compound 449] | L (L shows the control value of 50% or less) | L (L shows the control value of 50% or less) | L (L shows the control value of 50% or less)
6 | Cc1ccc(F)cc1-n1cc(Cl)c(=O)c(Cl)c1-c1c(F)cccc1F [Compound 450] | H (H shows the control value of more than 50%) | H (H shows the control value of more than 50%) | L (L shows the control value of 50% or less)
7 | Cc1cccc(C)c1-n1cc(Br)c(=O)c(Br)c1-c1ccccc1 [Compound 451] | L (L shows the control value of 50% or less) | H (H shows the control value of more than 50%) | L (L shows the control value of 50% or less)
8 | Cc1cccc(C)c1-n1cc(Br)c(=O)c(Cl)c1-c1ccccc1 [Compound 452] | L (L shows the control value of 50% or less) | H (H shows the control value of more than 50%) | L (L shows the control value of 50% or less)
9 | Cc1cn(-c2ccccc2Br)c(-c2c(F)cc(F)cc2F)c(C)c1=O [Compound 453] | H (H shows the control value of more than 50%) | H (H shows the control value of more than 50%) | L (L shows the control value of 50% or less)
10 | COc1cc(F)c(-c2c(C)c(=O)c(C)cn2-c2ccccc2)c(F)c1 [Compound 454] | H (H shows the control value of more than 50%) | H (H shows the control value of more than 50%) | L (L shows the control value of 50% or less)
11 | Cc1ccc(F)cc1-n1cc(C)c(=O)c(C)c1-c1c(F)cc(F)cc1F [Compound 455] | H (H shows the control value of more than 50%) | H (H shows the control value of more than 50%) | L (L shows the control value of 50% or less)
12 | COc1cc(F)c(-c2c(C)c(=O)c(C)cn2-c2ccccc2Br)c(F)c1 [Compound 456] | H (H shows the control value of more than 50%) | H (H shows the control value of more than 50%) | L (L shows the control value of 50% or less)
13 | Cc1ccc(F)cc1-n1cc(Br)c(=O)c(Cl)c1-c1c(F)cccc1F [Compound 457] | L (L shows the control value of 50% or less) | H (H shows the control value of more than 50%) | L (L shows the control value of 50% or less)
14 | Cc1ncccc1-n1cc(Br)c(=O)c(Cl)c1-c1c(F)cc(F)cc1F [Compound 458] | H (H shows the control value of more than 50%) | H (H shows the control value of more than 50%) | L (L shows the control value of 50% or less)
15 | Cc1ccc(C)c(-n2cc(Br)c(=O)c(Cl)c2-c2ccccc2)c1 [Compound 459] | L (L shows the control value of 50% or less) | L (L shows the control value of 50% or less) | L (L shows the control value of 50% or less)
16 | Cc1ccc(C)c(-n2cc(Br)c(=O)c(Br)c2-c2ccccc2)c1 [Compound 460] | H (H shows the control value of more than 50%) | L (L shows the control value of 50% or less) | L (L shows the control value of 50% or less)
17 | Cc1c(Cl)cccc1-n1cc(C)c(=O)c(C)c1-c1c(F)cc(F)cc1F [Compound 461] | H (H shows the control value of more than 50%) | H (H shows the control value of more than 50%) | L (L shows the control value of 50% or less)

Row | Compound | Test A control value [1] | Test H control value [2] | Test F control value [3]
18 | COc1cc(F)c(-c2c(C)c(=O)c(C)cn2-c2cc(F)ccc2C)c(F)c1 [Compound 462] | H (H shows the control value of more than 50%) | H (H shows the control value of more than 50%) | L (L shows the control value of 50% or less)
19 | Cc1ccc(Cl)cc1-n1cc(C)c(=O)c(C)c1-c1c(F)cc(F)cc1F [Compound 463] | H (H shows the control value of more than 50%) | H (H shows the control value of more than 50%) | L (L shows the control value of 50% or less)
20 | COc1cc(F)c(-c2c(C)c(=O)c(C)cn2-c2cc(Cl)ccc2C)c(F)c1 [Compound 464] | H (H shows the control value of more than 50%) | H (H shows the control value of more than 50%) | L (L shows the control value of 50% or less)
21 | Cc1cccc(-n2cc(C)c(=O)c(C)c2-c2c(F)cc(F)cc2F)c1C [Compound 465] | H (H shows the control value of more than 50%) | H (H shows the control value of more than 50%) | L (L shows the control value of 50% or less)
22 | Cc1cn(-c2ccccc2)c(-c2ccc(F)cc2F)c(C)c1=O [Compound 466] | H (H shows the control value of more than 50%) | H (H shows the control value of more than 50%) | L (L shows the control value of 50% or less)
23 | O=c1c(Br)cn(-c2ccccc2)c(-c2ccccc2F)c1Cl [Compound 467] | L (L shows the control value of 50% or less) | L (L shows the control value of 50% or less) | L (L shows the control value of 50% or less)
24 | O=c1c(Br)cn(-c2ccccc2)c(-c2ccccc2F)c1Br [Compound 468] | H (H shows the control value of more than 50%) | L (L shows the control value of 50% or less) | L (L shows the control value of 50% or less)
25 | O=c1c(Br)cn(-c2ccccc2)c(-c2ccc(F)cc2F)c1Cl [Compound 469] | H (H shows the control value of more than 50%) | H (H shows the control value of more than 50%) | L (L shows the control value of 50% or less)
26 | O=c1c(Br)cn(-c2ccccc2)c(-c2ccc(F)cc2F)c1Br [Compound 470] | H (H shows the control value of more than 50%) | H (H shows the control value of more than 50%) | L (L shows the control value of 50% or less)
27 | Cc1cn(-c2ccccc2)c(-c2ccccc2F)c(C)c1=O [Compound 471] | H (H shows the control value of more than 50%) | H (H shows the control value of more than 50%) | L (L shows the control value of 50% or less)
28 | Cc1ccc(Br)cc1-n1cc(C)c(=O)c(C)c1-c1c(F)cc(F)cc1F [Compound 472] | H (H shows the control value of more than 50%) | H (H shows the control value of more than 50%) | L (L shows the control value of 50% or less)
29 | Cc1cn(-c2ccccc2Cl)c(-c2c(F)cccc2F)c(C)c1=O [Compound 473] | H (H shows the control value of more than 50%) | H (H shows the control value of more than 50%) | L (L shows the control value of 50% or less)
30 | Cc1cn(-c2ccccc2Cl)c(-c2ccccc2)c(C)c1=O [Compound 474] | H (H shows the control value of more than 50%) | H (H shows the control value of more than 50%) | L (L shows the control value of 50% or less)
31 | CCc1c(-c2ccccc2)n(-c2ccccc2C)cc(Br)c1=O [Compound 475] | H (H shows the control value of more than 50%) | H (H shows the control value of more than 50%) | L (L shows the control value of 50% or less)
32 | Cc1cn(-c2ccccc2C(F)(F)F)c(-c2c(F)cc(F)cc2F)c(C)c1=O [Compound 476] | H (H shows the control value of more than 50%) | H (H shows the control value of more than 50%) | L (L shows the control value of 50% or less)
33 | COc1cc(F)c(-c2c(C)c(=O)c(C)cn2-c2cccc(C)c2C)c(F)c1 [Compound 477] | H (H shows the control value of more than 50%) | H (H shows the control value of more than 50%) | L (L shows the control value of 50% or less)
34 | Cc1cccc(-n2cc(C)c(=O)c(C)c2-c2c(F)cccc2F)c1C [Compound 478] | H (H shows the control value of more than 50%) | H (H shows the control value of more than 50%) | L (L shows the control value of 50% or less)
